Among all 420,000 compounds or so, about 50,000 (12%) were called active. Inconclusive results, whose numbers are uncertain, are shown with a selection of clear calls. The call rests on the fitted dose curve; in most records, active means well fitted inhibition curve with a large enough effect; inconclusive means small, poorly fitted or top-dose-only effect; inactive means flat fitted curve, though single readings scatter. Potencies of inconclusive entries are left out as doubtful fits.
Test: qHTS for Inhibitors of human tyrosyl-DNA phosphodiesterase 1 (TDP1): qHTS in cells in presence of CPT; further: nearly all actives have a fitted effect of over 55% in size
Conditions: chicken DT40 Tdp1-/-;hTDP1 cells + 20 nM CPT, ATP luminescence, 48 h; activity change, negative = growth inhibition: at 46.2 µM (top of the series) unless noted
Summary of the method: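 Chicken DT40 Tdp1-/- cells stably complemented with human TDP1 were seeded at 400 cells/well in medium containing 20 nM camptothecin, exposed to pin-transferred compounds, and grown at 37 °C for at least 48 hr. Viability was read as ATP luminescence.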
On the % scale 0 is the no-effect control and ±100 the full control effect; potency means the concentration at half of the fitted maximal effect; tags describe the fitted curve by direction and shape.

Row | SMILES | activity change, negative = growth inhibition | Potency
1 | Cc1cc2nccc(-c3ccc(F)cc3)n2n1 | inconclusive: -30.6% [inhibitor] | –
2 | CCn1c(Cl)c(C=O)s/c1=N\S(=O)(=O)c1ccccc1 | – | active: 0.82 µM
3 | O=C(CSc1ncn[nH]1)Nc1ccc2c(c1)CCC2 | inactive: -17.4% | –
4 | COc1ccc(-c2cc(-c3nnc(COC(=O)CC4CC5CCC4C5)o3)c3ccccc3n2)cc1OC (stereo not drawn) | – | active: 20.6 µM
5 | O=C1CNC(=S)N1C1CCCCCC1 | inactive: 17.2% | –
6 | O=C(/C=C/c1ccccc1)NC(=S)Nc1ccc(CN2CCOCC2)cc1 | – | inconclusive [inhibitor, partial curve]
7 | C/C(CC(=O)Nc1cccc(C(F)(F)F)c1)=N\NC(=O)C1CCCCC1 | – | inconclusive [inhibitor, single point]
8 | O=C(C1COc2ccccc2O1)N(Cc1cccnc1)c1nc2ccc(F)cc2s1 (stereo not drawn) | inactive: -5.82% | –
9 | CCOc1ccc(CCNC(=O)c2ccc3[nH]c(C)c(C)c3c2)cc1 | – | inconclusive [inhibitor, single point]
10 | Cc1ccc2scc(N3CCN(c4ccccc4)CC3)c(=O)c2c1 | – | inconclusive [inhibitor, single point]
11 | COc1ccc2nc(Cl)c(/C=N/Nc3ccccn3)cc2c1 | – | inconclusive [inhibitor, single point]
12 | CC(C)(C)C(=O)NCCc1nc2ccccc2n1CC(=O)c1ccc(Cl)cc1 | – | inconclusive [inhibitor, single point]
13 | CCOCCCNC(=O)c1cc(Sc2ccc(F)cc2)nc2ccccc12 | – | inconclusive [inhibitor, partial curve, poor fit]
14 | N/C(=N\c1nc2c(c(=O)[nH]1)CCC2)Nc1cccc(Cl)c1 | – | active: 20.6 µM
15 | Oc1c(C(c2ccccc2)N2CCOCC2)ccc2ccccc12 (stereo not drawn) | – | active: 8.2 µM
16 | COc1ccc(OC)c(NC(=O)CCN2C(=O)c3ccccc3C2=O)c1 | inactive: 4.12% | –
17 | O=C(CN(C(=O)c1cccc([N+](=O)[O-])c1)C1CCCCC1)Nc1ccc(Cl)c([N+](=O)[O-])c1 | – | inconclusive [inhibitor, single point]
18 | O=C(NCCC1CCCCN1S(=O)(=O)c1cccs1)C(=O)Nc1ccc(F)cc1 (stereo not drawn) | – | inconclusive [inhibitor, single point]
19 | COc1ccc(C(NC(=O)C2CCCCC2)c2c(O)ccc3ccccc23)cc1 (stereo not drawn) | – | inconclusive [inhibitor, single point]
20 | CC#CC#Cc1cccc(=O)o1 | – | inconclusive [inhibitor, single point]
21 | O=C1c2ccccc2C(=O)c2[nH]c(=O)[nH]c21 | – | active: 2.06 µM
22 | CC(O)(c1ccccc1)C(c1ccccc1)C1CCCCN1 (stereo not drawn) | inactive: -10.1% | –
23 | CCn1nc(NC(=O)c2cccs2)c2cc3ccccc3nc21 | – | inconclusive [inhibitor, single point]
24 | O=C(Cn1c(=O)oc2ccccc21)NCc1ccccc1Cl | – | inconclusive [inhibitor, single point]

Row | SMILES | activity change, negative = growth inhibition | Potency
25 | CC1CCN(S(=O)(=O)c2ccc3[nH]c(=O)ccc3c2)CC1 | inactive: -2.79% | –
26 | Cc1ccc(S(=O)(=O)N(C)C2(C)CCS(=O)(=O)C2)cc1 (stereo not drawn) | inactive: -24.8% | –
27 | CCOC(=O)c1ccc(NC(=O)NCCc2cnc[nH]2)cc1 | inactive: -6.08% | –
28 | Cc1cn(C2CC(OC(=O)C(C)C)C(CO)O2)c(=O)[nH]c1=O (stereo not drawn) | inactive: -2.27% | –
29 | COCCCNC(=O)/C(C#N)=c1\s/c(=C\c2ccccc2OC(F)F)c(=O)n1CCCOC | – | inconclusive [inhibitor, partial curve]
30 | O=C(Nc1cccc(S(=O)(=O)N2CCCC2)c1)c1cccc(OC(F)F)c1 | – | inconclusive [inhibitor, single point]
31 | CCOc1cc(C(=O)NC(C)CCc2ccccc2)cc(OCC)c1OCC (stereo not drawn) | inconclusive: -33.4% [inhibitor] | –
32 | CCOC(=O)c1cnc(-n2nc(C)cc2C)nc1NCCc1ccccc1 | – | active: 6.51 µM
33 | CC(C)(C)NC(=S)N/N=C\c1ccc(-c2ccc([N+](=O)[O-])cc2)o1 | – | active: 9.2 µM
34 | Cc1ccc(C)c(N2CCN(CCCNC(=O)Cn3c(-c4cccs4)cc4ccccc43)CC2)c1 | – | active: 5.17 µM
35 | CCOC(=O)C1CCN(CC(=O)Nc2c(C(=O)OC)[nH]c3cccc(C)c23)CC1 | inactive: -12% | –
36 | Cc1ccc(Cl)cc1N1CCN(C(=O)C2CCC(=O)N(C3CCCCCC3)C2)CC1 (stereo not drawn) | – | active: 6.51 µM
37 | COc1ccccc1NC(=O)c1nnn(CC(=O)Nc2cc(C)cc(C)c2)c1N | inactive: -1.57% | –
38 | S=C(NCCC(c1ccccc1)c1ccccc1)Nc1ccc(Cl)cc1 | – | inconclusive [inhibitor, single point]
39 | O=C(NCc1ccco1)c1ccc(Cl)c(S(=O)(=O)N2CCc3ccccc32)c1 | – | inconclusive [inhibitor, partial curve]
40 | Cc1ccc(S(=O)(=O)N2CCOCC2)cc1C(=O)NC1CCSc2ccccc21 (stereo not drawn) | inactive: -20.1% | –
41 | Cc1nn(-c2nc3ccccc3[nH]2)c(N)c1-c1ccccc1 | – | inconclusive [inhibitor, single point]
42 | CCOC(=O)C1=C[C@@H](C)N(S(=O)(=O)c2ccc(C)cc2)[C@H]1c1ccccc1 | – | inconclusive [inhibitor, single point]
43 | CC(O)c1nc2cc([N+](=O)[O-])ccc2n1Cc1ccccc1 (stereo not drawn) | – | inconclusive [inhibitor, single point]
44 | COc1ccc2c(C)cc(=O)oc2c1 | – | inactive
45 | CC(NCCN(C)C)C1CCC2C3CCc4cc(O)ccc4C3CCC12C (stereo not drawn) | – | inconclusive [inhibitor, single point]
46 | C=C[C@@H]1c2cc(C)ccc2N(S(=O)(=O)c2ccc(C)cc2)[C@H](c2ccc(C(C)(F)F)cc2)C1(C#N)C#N | – | inconclusive [inhibitor, single point]
47 | O=C(c1ccc(-n2cncn2)c([N+](=O)[O-])c1)N1CCN(S(=O)(=O)c2cccc(F)c2)CC1 | – | inconclusive [inhibitor, single point]
48 | COCCNC(=S)N1CCC(Cc2ccccc2)CC1 | – | inconclusive [inhibitor, single point]
